In the BET-seq Pho4 binding data (Le et al. 2018):
The other results are listed elsewhere or left out. These are noisy estimates, calculated here from bound and input reads.

molecular target: T1, Pho4 (S. cerevisiae) (UniProt P07270); assay: relative binding free energy (BET-seq); higher = weaker binding; details: reference: library average
T1 sequence: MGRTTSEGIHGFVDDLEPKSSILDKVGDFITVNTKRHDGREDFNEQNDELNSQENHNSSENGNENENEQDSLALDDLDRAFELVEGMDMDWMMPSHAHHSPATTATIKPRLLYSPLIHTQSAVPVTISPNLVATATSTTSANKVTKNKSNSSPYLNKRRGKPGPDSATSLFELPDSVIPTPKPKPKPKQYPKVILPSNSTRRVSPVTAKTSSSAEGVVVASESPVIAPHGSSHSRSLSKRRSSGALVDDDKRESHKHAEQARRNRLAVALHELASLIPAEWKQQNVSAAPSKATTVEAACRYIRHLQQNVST

| Sequence | relative binding free energy |
| --- | --- |
| GTCTGCACGTGTTTTG | -0.08 kcal/mol |
| GTATTCACGTGGTGTG | 0.19 kcal/mol |
| CTGTGCACGTGGTTGA | 0 kcal/mol |
| AGTCGCACGTGTACGG | -0.04 kcal/mol |
| AGATTCACGTGGAGTG | 0.21 kcal/mol |
| TGGCTCACGTGGGTAA | 0.15 kcal/mol |
| CGTTCCACGTGGTTGG | 0.11 kcal/mol |
| GTTTACACGTGTTTTC | 0.21 kcal/mol |
| TTGACCACGTGTGTGT | 0.01 kcal/mol |
| GTAAGCACGTGTGAGT | 0.24 kcal/mol |
| TGTCGCACGTGAAGCG | 0.18 kcal/mol |
| GGGAGCACGTGGGTTG | -0.11 kcal/mol |
| GTGTTCACGTGGATCT | 0.25 kcal/mol |
| TAATACACGTGTTAAT | 0.09 kcal/mol |
| TCTCTCACGTGGGGGG | 0.05 kcal/mol |
| TGAGGCACGTGCTTGA | -0.11 kcal/mol |
| TGATCCACGTGGTATG | -0.1 kcal/mol |
| TGTCACACGTGTAGGG | 0.15 kcal/mol |
| ATTTTCACGTGCCGGT | 0.26 kcal/mol |
| ATGCGCACGTGGCTGG | -0.31 kcal/mol |
| GTAGGCACGTGACGTG | -0.04 kcal/mol |
| TGCGACACGTGGAGGG | 0.01 kcal/mol |
| TGGCACACGTGGGTCT | -0.07 kcal/mol |

| Sequence | relative binding free energy |
| --- | --- |
| CGGGTCACGTGGAATG | 0.16 kcal/mol |
| CAGGTCACGTGTGGGC | 0.18 kcal/mol |
| GGTTGCACGTGGATCG | 0.09 kcal/mol |
| ATAGCCACGTGGTTTG | -0.07 kcal/mol |
| TAGTACACGTGGTCGT | 0.04 kcal/mol |
| TGTGTCACGTGGCCGT | 0.07 kcal/mol |
| TAATTCACGTGCAATT | 0.29 kcal/mol |
| TGTATCACGTGTTATG | 0.14 kcal/mol |
| CGAATCACGTGCGGGG | 0.09 kcal/mol |
| TGTGTCACGTGCTATG | -0.06 kcal/mol |
| AGCGTCACGTGTAAGT | 0.09 kcal/mol |
| GTAGTCACGTGTGGAA | -0.01 kcal/mol |
| CGGTACACGTGGAGGC | 0.13 kcal/mol |
| TGTGTCACGTGGTCAC | 0 kcal/mol |
| CCGTTCACGTGGCGGT | 0.3 kcal/mol |
| GTGCTCACGTGAGCGG | 0.34 kcal/mol |
| AAGCGCACGTGGAGTG | -0.14 kcal/mol |
| GTGCGCACGTGAGGGA | 0.17 kcal/mol |
| TGTTCCACGTGTAGTA | 0.11 kcal/mol |
| ACTGTCACGTGGGCGG | -0.16 kcal/mol |
| TGGTTCACGTGCAGGA | 0.3 kcal/mol |
| AGTATCACGTGTATGG | 0.1 kcal/mol |
| ATTTTCACGTGTGCTG | 0.29 kcal/mol |

| Sequence | relative binding free energy |
| --- | --- |
| TACGGCACGTGGTGCA | -0.1 kcal/mol |
| GCTTACACGTGGTTGG | 0.13 kcal/mol |
| TTGTTCACGTGGAGTG | 0.21 kcal/mol |
| TAAGCCACGTGTGGTG | -0.05 kcal/mol |
| GTTAACACGTGGATAG | -0.02 kcal/mol |
| GTATTCACGTGTGAAT | 0.3 kcal/mol |
| TGGGTCACGTGCATGC | -0.14 kcal/mol |
| GATGTCACGTGTGAGG | 0.17 kcal/mol |
| TCTGACACGTGTAGGG | 0.07 kcal/mol |
| CATTTCACGTGGATAG | 0.25 kcal/mol |
| ATGAGCACGTGTAGTA | -0.21 kcal/mol |
| GTGAGCACGTGCGCGG | -0.26 kcal/mol |
| TGGAGCACGTGTTGAT | -0.18 kcal/mol |
| GGATCCACGTGTGTTG | 0.06 kcal/mol |
| ACTATCACGTGTGGTA | 0.18 kcal/mol |
| TGCTACACGTGGTTGT | 0.05 kcal/mol |
| CGTTTCACGTGCGTTA | 0.14 kcal/mol |
| GGTTCCACGTGTAGGT | 0.15 kcal/mol |
| TGAGTCACGTGGTTCA | 0.05 kcal/mol |
| TTGTACACGTGAATTG | 0.29 kcal/mol |
| GCTGGCACGTGGGCGC | -0.13 kcal/mol |
| AAGGGCACGTGTTTAT | -0.12 kcal/mol |
| TGTCTCACGTGGCAGG | 0.08 kcal/mol |

| Sequence | relative binding free energy |
| --- | --- |
| GGCAACACGTGTTGTG | -0.09 kcal/mol |
| TGCACCACGTGAGGGT | 0.12 kcal/mol |
| CGCGGCACGTGAGGTA | 0.14 kcal/mol |
| CTGGTCACGTGAGGGT | 0.35 kcal/mol |
| GTAGACACGTGGTCTT | 0.03 kcal/mol |
| TTGTTCACGTGTGTCC | 0.18 kcal/mol |
| CCTGGCACGTGGTTTG | -0.12 kcal/mol |
| AAGGACACGTGATAGT | 0.12 kcal/mol |
| GAAGTCACGTGTGTAG | 0.11 kcal/mol |
| TGAATCACGTGGGATG | -0.02 kcal/mol |
| ATGGTCACGTGAGGTT | 0.33 kcal/mol |
| TTATTCACGTGATTGT | 0.28 kcal/mol |
| TCCTTCACGTGGTGGG | 0.23 kcal/mol |
| TGGGACACGTGCGTGT | -0.09 kcal/mol |
| TCGGGCACGTGTCGTT | -0.02 kcal/mol |
| ATTGGCACGTGGTGGA | -0.08 kcal/mol |
| TAAAGCACGTGTGTTG | -0.2 kcal/mol |
| GAGAGCACGTGGTCTT | -0.06 kcal/mol |
| TAGATCACGTGTTGGA | 0.15 kcal/mol |
| TTAAGCACGTGAGGCG | 0.16 kcal/mol |
| AGGGCCACGTGTTTTG | -0.1 kcal/mol |
| GATTTCACGTGGTATG | 0.4 kcal/mol |
| AAAGTCACGTGGGTTG | -0.05 kcal/mol |

| Sequence | relative binding free energy |
| --- | --- |
| GTGATCACGTGGAAAT | 0.29 kcal/mol |
| ATGTGCACGTGGATCT | 0.07 kcal/mol |
| CAGAGCACGTGGAAGG | 0.17 kcal/mol |
| TTTAGCACGTGTGGGT | 0.03 kcal/mol |
| GTGTACACGTGATGTA | 0.15 kcal/mol |
| TGGGACACGTGGTCGA | -0.07 kcal/mol |
| ATTGACACGTGATAAT | 0.15 kcal/mol |
| TGAGTCACGTGTTGAT | 0.09 kcal/mol |
| TTGGGCACGTGATAAT | -0.04 kcal/mol |
| TAGGTCACGTGGTTTG | 0.15 kcal/mol |
| GGGATCACGTGGAATT | 0.36 kcal/mol |
| ATGCTCACGTGTGGAT | 0.14 kcal/mol |
| AGGGGCACGTGATATA | 0.03 kcal/mol |
| AGAGTCACGTGTCAGT | 0.2 kcal/mol |
| AATTACACGTGGTGAT | 0.1 kcal/mol |
| GGTGGCACGTGAGCGC | 0.07 kcal/mol |
| GTAATCACGTGATGTG | 0.27 kcal/mol |
| GGTAACACGTGGAGAG | 0.05 kcal/mol |
| TTGCTCACGTGAGTGG | 0.36 kcal/mol |
| GTGTCCACGTGAGGGC | 0.2 kcal/mol |
| GCTGACACGTGAGTGT | 0.33 kcal/mol |
| ATTCGCACGTGTGGTC | -0.05 kcal/mol |
| TCTGCCACGTGTTTGG | -0.08 kcal/mol |
